# According to PubChem BioAssay AID485344 (National Center for Advancing Translational Sciences (NCATS), 2010):
# “And” between values parts separate entries of the source, which are not always exact repeats. Equal entries are not always repeated. Screen size: about 340,000 compounds; about 6,900 (2%) were called active. No stated cut-off is given here; in the data, active means inhibition above about 30%; inactive means below that, where a call was filed. Only a part is listed here, and it is no random draw. Where no call is shown, the source filed none.
# Target: D(2) dopamine receptor (Homo sapiens) (UniProt P14416)
# Test: HTS Assay for Allosteric Antagonists of the Human D2 Dopamine Receptor: Primary Screen for Antagonists; further: 0% is about no effect
# Conditions: HEK293 TREx D2 cells, calcium flux, dopamine EC80; at 10 µM; stronger effect = higher value
# How it was run: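 Read-out: kinetic calcium fluorescence (1 cycle/s) in inducible HEK293 T-REx D2 cells after an EC80 dopamine addition that followed 180 s compound preincubation. Loss of the dopamine response indicates antagonism.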
# Chain of UniProt P14416 (P14416 whole entry, looked up): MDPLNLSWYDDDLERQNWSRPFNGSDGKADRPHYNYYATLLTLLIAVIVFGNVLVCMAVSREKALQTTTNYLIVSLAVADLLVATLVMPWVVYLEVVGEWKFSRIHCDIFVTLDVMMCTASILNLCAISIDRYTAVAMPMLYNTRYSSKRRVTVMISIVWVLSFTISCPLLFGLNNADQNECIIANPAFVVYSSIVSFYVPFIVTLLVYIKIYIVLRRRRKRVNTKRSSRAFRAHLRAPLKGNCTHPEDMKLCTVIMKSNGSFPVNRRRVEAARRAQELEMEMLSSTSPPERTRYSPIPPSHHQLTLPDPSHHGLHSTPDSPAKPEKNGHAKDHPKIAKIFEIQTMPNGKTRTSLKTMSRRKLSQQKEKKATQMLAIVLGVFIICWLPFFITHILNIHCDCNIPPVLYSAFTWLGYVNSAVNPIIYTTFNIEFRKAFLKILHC
row,Compound,inhibition
1,CCCN1CCN(CCNC(=O)Nc2cc(C)ccc2OC)CC1,-20.9%
2,CCOc1ccccc1NC(=O)c1sc2nc(-c3ccc(OC)cc3)ccc2c1N,-7.78%
3,CCC1CCCCN1CCCNC(=O)c1c(O)nc2c(C)cccn2c1=O (stereo not given),5.96%
4,COc1ccc(-n2c(/C=C/c3cccc4ccccc34)nc3ccccc3c2=O)cc1Cl,-8.5%
5,CCCCNc1nc(Oc2ccc(OCCC)nn2)nc(N(C)C)n1,0.256%
6,COc1ccc(OC)c(CCNC(=O)CN2C(=O)COc3ccc(S(=O)(=O)N4CCC(C)CC4)cc32)c1,-4.52%
7,COc1ccc(CC(=O)Nc2c(C(=O)Nc3ccc(F)cc3)oc3ccccc23)cc1OC,1.49%
8,Cc1nn(-c2ccc(N3CCCC3)nn2)c(C)c1CCC(=O)NCc1ccccc1F,-4.19%
9,O=C(CCSCc1ccccc1F)N1CCN(c2ccc(Cl)cc2)CC1,-8.18%
10,O=C(c1ccccc1)n1nc(-c2ccco2)nc1NCc1cccs1,-1.47%
11,Cc1ccc(Cn2cc(/C=C(/C#N)C(=O)Nc3cccc(Cl)c3)c3ccccc32)cc1,4.74%
12,Cc1ccc(S(=O)(=O)N2CCc3cc(C(=O)Nc4ccc(C)c(C)c4)ccc32)cc1,-19%
13,O=c1cc(-c2ccccc2)nc2cc(-c3ccc(F)cc3)[nH]n12,4.89%
14,CCC(=O)OCc1cnc(C)c2oc(=O)c(C(=O)Nc3ccccc3C(F)(F)F)cc12,-2.92%
15,Cc1cccc(N(C)C(=O)CN(C)S(=O)(=O)c2ccc3[nH]c4c(c3c2)CCCC4)c1,5.79%
16,COc1cc2ccccc2cc1C(=O)Nc1cc(-c2nc3ccccc3o2)ccc1C,-2.19%
17,COc1ccc(CNC(=O)CSc2ncc3c(n2)-c2cc(Cl)ccc2N(Cc2ccccc2)S3(=O)=O)cc1OC,7.99%
18,COc1ccccc1NC(=O)Cn1c(=O)n(CCc2ccccc2)c(=O)c2c3c(sc21)CN(C(C)=O)CC3,11.2%
19,Cc1nnc(SCc2nc(-c3ccc(Cl)cc3)no2)n1-c1ccc(F)cc1,1.31%
20,CCN(CC)C(=O)c1sc2c(c1C)c(=O)n(-c1ccc(C)c(C)c1)c(=O)n2Cc1cc(=O)n2c(C)cccc2n1,-12.2%
21,CCn1c(=O)cc(OCC(=O)NCc2ccccc2Cl)c2ccccc21,-7.42%
22,COc1cccc(CNC(=O)C(NS(=O)(=O)c2ccc3c(c2)oc(=O)n3C)C(C)C)c1 (stereo not given),-4.5%
23,COc1ccc(O)c(C2Nc3ccccc3-n3c(-c4ccccc4)c4c(=O)n(C)c(=O)n(C)c4c32)c1 (stereo not given),20.4%
24,COc1ccc(S(=O)(=O)Nc2cccc(-c3ccc(N4CCCCCC4)nn3)c2)cc1,-7.27%

row,Compound,inhibition
1,Cc1nnsc1C(=O)Oc1ccc(C(C)C)cc1,-14.2%
2,Cc1cccc(NC(=O)CSc2nc(C3CCCC3)nc3c2c(=O)n(C)c(=O)n3C)c1C,-4.09%
3,Cc1ccc(NC(=O)Cn2c(CCC(=O)O)ccc2-c2ccc(Cl)cc2)cc1,3.22%
4,COC(=O)c1ccc(NC(=O)Cn2nc(C(=O)Nc3ccc(C)cc3)ccc2=O)cc1,-4.97% and active: 30%
5,COc1ccccc1N1CCN(c2ncnc3c2nc2n3CCCC2)CC1,-2.18%
6,Cc1ccc(Cn2cc(CCC(=O)NCc3ccccc3F)c3ccccc32)cc1,-1.03%
7,CCN(CC)S(=O)(=O)c1ccc2c(c1)N(CC(=O)N(C)Cc1ccccc1)C(=O)CO2,-4.37%
8,O=C(CNC(=O)c1ccc(Cl)cc1)OCc1cc(=O)n2ccsc2n1,15.5%
9,COc1ccc(-c2[nH]c3c(c2-c2c(-n4cccc4)n(C)c(=O)n(C)c2=O)c(=O)n(C)c(=O)n3C)cc1,1.94%
10,CN1CCN(Cc2cc(=O)oc3ccc(Cl)cc23)CC1,active: 44.8%
11,CCCCn1c(Nc2ccccc2)nc2ccccc21,active: 35.8%
12,COc1ccc(C)cc1NC(=O)C(=O)NCC1(c2ccccc2)CCCC1,-5.66%
13,O=C(Nc1nnc(S(=O)(=O)N2CCN(c3ccc(F)cc3)CC2)s1)c1ccc(Cl)cc1,-4.06%
14,CCCCSCCCNC(=O)CN1C(=O)COc2ccc(S(=O)(=O)N3CCC(C)CC3)cc21,2.83%
15,Cc1ccc(C(=O)Nc2ccc(C(=O)OCc3cc(=O)n4ccsc4n3)cc2)cc1,9.18%
16,O=C1c2cccc3c(O)ccc(c23)C(=O)N1Cc1ccccc1,active: 33.8%
17,CCCCOc1ccc(C(=O)N(C)CC(=O)Nc2ccc(C)cc2)cc1,active: 54.7%
18,CC(C)(C)c1ccc(C2NC(=O)c3n[nH]c(-c4cccs4)c32)cc1 (stereo not given),10.4%
19,Cc1cc(C(=O)NCCc2ccc(Cl)cc2)c2c(C)nn(-c3cccc(F)c3)c2n1,-4.44%
20,COC(=O)c1cc2sc(Cl)cc2n1Cc1nc(-c2ccc(OC)cc2)oc1C,6.83%
21,COc1ccc(N(CC(=O)NCCc2cccc(C)c2)S(=O)(=O)c2c(C)noc2C)cc1,8.76%
22,Cc1ccc(NC(=O)CCNCc2ccco2)cc1S(=O)(=O)N(C)C,active: 33.6%
23,COc1cccc(C(=O)Nc2cc3cc(OC)ccc3oc2=O)c1,3.15%
24,Cc1cc(C)c2c(n1)SCCN2C(=O)Nc1ccc(C(=O)Nc2cc(Cl)ccc2C)cc1,4.77%

row,Compound,inhibition
1,Cn1cc(C(=O)NCc2ccc(Cl)cc2)c(=O)c2cc(S(=O)(=O)N3CCCCCC3)ccc21,-10.5%
2,CCOc1ccccc1N1C(=O)CC(Sc2ncccc2C(=O)O)C1=O (stereo not given),active: 35.6%
3,Cc1cc(C)cc(NC(=O)N2CCN3CCCCC3C2)c1 (stereo not given),1.46%
4,O=C(NC1CCCCC1)c1c[nH]c2ccc(S(=O)(=O)Nc3ccccc3F)cc2c1=O,-2.79%
5,CCOC(=O)c1ccc(NC(=O)c2c(NCc3sccc3C)sc3c2CCCCC3)cc1,-8.17%
6,CC(C)(C)c1ccc(C(=O)NC(Cc2c[nH]c3ccccc23)C(=O)OCC(=O)c2ccccc2)cc1 (stereo not given),-23.9%
7,COc1ccc(-c2[nH]ncc2CN2CCN(c3ccccn3)CC2)c(OC)c1,active: 57.4%
8,COc1ccc(C(=O)C2CCCN(C/C=C/c3ccccc3OC)C2)c(OC)c1 (stereo not given),active: 85.6%
9,CC1CCCN(c2cc3c(cc2F)c(=O)c(S(=O)(=O)c2cccc(Cl)c2)cn3C)C1 (stereo not given),4.87%
10,COc1ccc(Cn2c(=O)[nH]c3cc(C(=O)N4CCN(c5cccc(OC)c5)CC4)ccc3c2=O)cc1,-6.53%
11,COC(CNC(=S)Nc1ccc([N+](=O)[O-])cc1)OC,active: 35.4%
12,CCc1ccc(NC(=O)CSc2nc3ccccc3nc2Cc2ccccc2OC)cc1,-13.4%
13,Cc1cccc(OCC(=O)Nc2ccc(-c3nc4cc(C)ccc4o3)c(O)c2)c1,6.75%
14,O=C(NC(=S)Nc1nc2c(s1)CCCC2)c1ccccc1,active: 34.8%
15,Cc1cccc(C(=O)NC2CC3CCCC(C2)N3Cc2ccccc2)c1 (stereo not given),active: 81.5%
16,CCC1CN(C(=O)N2CCC(C(=O)NCCC3=CCCCC3)CC2)c2cc(C)ccc2O1 (stereo not given),-10.9%
17,CCn1cc2nc(SCc3ccc(C)cc3)n(CCc3ccccc3)c(=O)c2n1,-5.88%
18,COc1ccc(S(=O)(=O)N(CC(=O)N(C)Cc2ccccc2)c2ccc(Cl)cc2)cc1,-16.9%
19,Cc1ccc(OCC(=O)Nc2ccc(Cl)c(-c3nc4ccccc4[nH]3)c2)cc1C,-9.15%
20,Cc1ccc(-c2nc3ccccn3c2Nc2c(C)cccc2C)o1,19%
21,CC1CCc2c(sc3nnn(Cc4ccccc4)c(=O)c23)C1 (stereo not given),-8.99%
22,Cc1ccc(NS(=O)(=O)c2ccc3[nH]c4c(c3c2)CCCC4)c(C)c1,-10.3%
23,Cc1nnc(N2CCCC(C(=O)Nc3ccccc3C(F)(F)F)C2)c2nn(-c3ccccc3)c(C)c12 (stereo not given),3.99%
24,CCOc1ccccc1N1CC(c2nc3ccccc3n2CCOc2ccc(OC)cc2)CC1=O (stereo not given),9.43%

row,Compound,inhibition
1,COc1ccc(CNC(=O)c2cc(-c3cccs3)nc3ccccc23)c(OC)c1,-11.4%
2,CCOC(=O)c1sc(NC(=O)c2nc3ncccn3n2)c(C(=O)OC(C)C)c1C,-1.5%
3,Cc1ccc(C)c(N2CCN(C(=O)c3cc4c(=O)n(Cc5cccnc5)ccc4nc3C)CC2)c1,6.82%
4,O=C(c1ccc(Cl)cc1)N1CCCCC1CCN1CCOCC1 (stereo not given),-11.3%
5,Cc1cccc(CSc2nc3cccnc3n2Cc2ccc(C(=O)NCc3cccs3)cc2)c1,2.11%
6,O=C(CCN1CCc2ccccc2C1)Nc1cccc(F)c1,active: 60.1%
7,Cc1cc(C)n(-c2nc3cc(Cl)c(Cl)cc3nc2Nc2ccc(F)cc2C)n1,-0.573%
8,Cc1cccc(C(=O)Nc2c(-c3ccc(F)cc3)nc3ccccn23)c1,-14.1%
9,CCn1c(=O)c2cc(C(=O)Nc3cc(C)c(Cl)cc3OC)sc2c2ccccc21,-9.84%
10,Cc1ccc(NC(=O)c2cc3c(Cl)nc4ccc(C)cc4c3s2)c(Cl)c1,4.58%
11,COc1ccc(NC(=O)CSc2nc3ccccc3n2CC(=O)N2CCCC(C)C2)cc1 (stereo not given),12.9%
12,CCOC(=O)c1c(C)[nH]c(C2=NNC(=NC(C)COC)SC2)c1C (stereo not given),active: 36%
13,CC(C)Cn1c(=O)c2sccc2n2c(CCCC(=O)NCC(C)c3ccccc3)nnc12 (stereo not given),11.3%
14,O=C(CSc1oc(-c2ccccc2)nc1S(=O)(=O)c1ccc(Br)cc1)NC1CCCCC1,-13%
15,CC(=O)Nc1nonc1-c1nnc(SCc2ccccc2C)n1C,14.3%
16,COc1ccc(CNC(=O)c2ccc3c(c2)N(Cc2ccccc2F)C(=O)c2ccccc2S3=O)cc1 (stereo not given),-2.61%
17,Cc1ccc(C2=Nc3ccccc3N(CC(=O)NCc3ccc(Cl)cc3)C(=O)C2)cc1C,-5.04%
18,COc1ccc(OC)c(NC(=O)Cc2c(C(=O)O)[nH]c3ccc(Cl)cc23)c1,14.8%
19,CCc1ccccc1NC(=O)Cc1ccc(-n2c(C)nc3cccnc32)cc1,8.94%
20,COc1cccc(-c2ccc3c(N)c(C(=O)Nc4ccc(Cl)cc4F)sc3n2)c1,12.1%
21,CCc1ccc(Nc2nn3c(=O)c4cc5c(cc4nc3s2)OCO5)cc1,-6.51%
22,COC(=O)c1cc2oc3ccccc3c2n1Cc1nc(-c2cccc(Cl)c2)oc1C,-10.9%
23,Cc1ccc(-n2nc3c(N4CCC(C(=O)N5CCC(C)CC5)CC4)nnc(C)c3c2C)cc1,3.71%
